# Results from article PMC12040169 (PLOS Biology, 2025).
# The other results are listed elsewhere or left out.
# Test system: T1, C. trachomatis L2/434/Bu expressing GFP (CTL2-GFP)
# T1 construct: L2/434/Bu GFP intracellular growth in HeLa cells
# Parameters: species or system HeLa; C. trachomatis total inclusion area by high-content imaging, normalised to DMSO
# Conditions: total inclusion area; 28.5 h, 10 µM; inhibitor
# In short: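 High-content imaging followed the bulk GFP/resorufin measurement: fixed, Hoechst-stained cells were scored for GFP inclusions and host nuclei per well. Total inclusion area and count served as growth proxies, nuclei number as the viability proxy. MIC calculation matched the bulk assay.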
row,Compound,% of control remaining
1,CC(=O)Nc1ccc(F)c(NC(=O)NCCN2CCCOC2=O)c1 [CBK307166],77.5707
2,O=C(Nc1ccc(N2CCN(C(=O)c3ccco3)CC2)cc1)c1cccnc1 [CBK270034],84.7772
3,CN(Cc1nnc(-c2ccc(C(C)(C)C)cc2)o1)C(=O)C1CCCO1 (centres unmarked) [CBK307597],85.9201
4,CCOc1cc(NC(=O)N2CCC(Cc3cnn(C)c3)C2)ccc1C (centres unmarked) [CBK305295],14.6286
5,Cc1nc2ccc(C(=O)NCCCc3ccccn3)cc2s1 [CBK282478],111.502
6,Nc1nc(N)c(Cc2ccc(Cl)cc2Cl)c(N)n1 [CBK009425],71.361
7,COc1cccc(/C=C\c2[nH]c(=O)[nH]c(=O)c2[N+](=O)[O-])c1OCC(=O)O [CBK266822],146.136
8,CCNc1ccn([C@H]2C[C@@H](O)[C@@H](CO)O2)c(=O)n1 [CBK201311],86.141
9,O=c1cc(O)c2ccccc2n1Cc1ccccc1F [CBK291162],117.532
10,Cc1cnc2[nH]c(C(F)(F)F)c(CN3CCOCC3)c2c1 [CBK284766],121.734
11,CCCN1CCC(CNC(=O)c2cc3c(OC)cccc3n2C)CC1 [CBK283255],105.228
12,CC(C)(O)c1cn(C2CN(C(=O)c3sccc3-c3ccccc3)C2)nn1 [CBK305442],45.8642
13,O=C(NCc1ccc(Cl)cc1)c1cnc2ccc(C#CCO)cc2c1O [CBK017979],88.0144
14,O=S(=O)(/N=C/N1CCCC1)c1ccccc1 [CBK023272],44.6526
15,O=C(Nc1ccc2c(c1)OCO2)c1cccc(I)c1 [CBK058308],62.2581
16,O=C(NCc1ccccc1)C(=O)NNC(=O)C12CC3CC(CC(C3)C1)C2 [CBK262951],106.86
17,CC1CN(CC(=O)NC(C)(C)c2ccccc2)CC(C)N1 (centres unmarked) [CBK051693],98.0035
18,CN(C(=O)CN1CCOC(Cn2cccn2)C1)C1(C#N)CCCCC1 (centres unmarked) [CBK305335],45.3333
19,CCc1c(C)nc(N)nc1N1N=C1SC(C(C)=O)C(C)=O [CBK268558],68.0938
20,COc1ccc(C=CC(=O)N(C)c2ccccc2C(=O)O)cc1 [CBK296135],114.542
21,O=C(N/N=C/c1cccnc1)C1CCCN(S(=O)(=O)c2ccccc2)C1 (centres unmarked) [CBK262712],103.034
22,COc1ccc(OC)c(NS(=O)(=O)N(C)C)c1 [CBK005362],19.4074
23,CC(=O)NCCn1cc2c(n1)[C@H]1CN(C(=O)C3CCC3)C[C@H]1CC2 [CBK284584],74.2892
24,COc1cc(/C=N/NC(=O)CCNc2n[nH]c(=O)[nH]c2=O)cc(Br)c1O [CBK263494],108.629
25,CO[C@]1(c2ccc(Cl)cc2)CC[C@H](NCCCC(=O)c2ccc(F)cc2)CC1 [CBK015959C],22.6182
26,CCCCc1cc(=O)oc2cc(OC(C)C(=O)O)c(Cl)cc12 (centres unmarked) [CBK265166],92.7619
27,Sc1nnc(COc2ccc(-c3ccccc3)cc2)n1-c1ccccc1 [CBK264964],124.044

row,Compound,% of control remaining
1,CS(=O)(=O)Nc1cc(-c2noc([C@@H]3CCCN3C3CCOCC3)n2)ccn1 [CBK288887],99.1311
2,CCC(Sc1nnc2c3ccccc3n(C)c2n1)C(=O)Nc1sc2c(c1C#N)CCCC2 (centres unmarked) [CBK263031],88.7684
3,Cc1ccc2nc(C(=O)O)cc(C(=O)O)c2c1 [CBK261174],90.9949
4,O=C(CNC(=O)c1cccc(F)c1)N/N=C1/C(=O)N(Cc2ccc3c(c2)OCO3)c2ccccc21 [CBK263519],79.8548
5,COc1ccc(C(=O)N2CCC3(CCCN(C(=O)Cc4ccc(Cl)c(Cl)c4)C3)C2)cc1OC (centres unmarked) [CBK131654],103.242
6,O=C(COc1ccc(S(=O)(=O)NC2CCCCC2)cc1)Nc1cccc2ccccc12 [CBK266023],91.6808
7,O=C(CSc1nnc(-c2ccncc2)n1-c1ccccc1)N1CCN(Cc2ccccc2)CC1 [CBK267240],100.778
8,COc1ccc(Br)cc1S(=O)(=O)NCCCN1CCOCC1 [CBK264050],107.333
9,Cc1c(C2CC(C(F)(F)F)n3nccc3N2)cnn1C (centres unmarked) [CBK288015],91.5205
10,CCOC(=O)CNC(=O)N1CCCC1c1nc(-c2ccccc2)c2ccccn12 (centres unmarked) [CBK046502],79.1713
11,COc1ccc(CCN2C(=O)CC(C(=O)O)S/C2=N\c2ccccc2)cc1 (centres unmarked) [CBK286606],107.178
12,O=P(O)(CN1CCOCC1)CN1CCOCC1 [CBK260914],81.9643
13,O=C(O)CC1c2ccccc2Oc2ccccc21 [CBK261836],91.5936
14,COc1nccnc1N1CCN(CCc2ccccc2)CC1 [CBK084228],107.054
15,CCOC(=O)N1CCC(NS(=O)(=O)Cc2ccccc2[N+](=O)[O-])CC1 [CBK045467],38.6895
16,CCC(NC(=O)Cc1c(C)nc(SC)[nH]c1=O)c1ccc(F)cc1 (centres unmarked) [CBK282653],105.101
17,O=C(Nc1ccccc1)N(O)CC(O)COc1ccccc1 (centres unmarked) [CBK288399],99.2229
18,O=C(NCC1CCCO1)NC(=O)c1nsc2ccccc12 (centres unmarked) [CBK019827],37.8592
19,COc1ccc(-n2nc3cc(C)c(NC(=S)NC(=O)/C=C/c4ccco4)cc3n2)cc1 [CBK264359],104.964
20,COc1ccc(NC(=O)CSc2nc3c(c(-c4cccs4)c2C#N)CN(C)CC3)cc1OC [CBK267444],86.0123
21,O=C(CSc1nc2ccccc2[nH]1)c1ccc2ccccc2c1 [CBK261739],83.4681
22,CC(C)(C)OC(=O)N1CCC(c2cc(=O)n3c(n2)CCCCC3)C1 (centres unmarked) [CBK283415],84.1363
23,COc1ccccc1CCC(=O)Nc1cnc(-c2ccc(F)cc2)c(-c2ccco2)n1 [CBK037002],109.996
24,CC(C)(CN1CCOCC1)NC(=O)c1cnc2cc(C(F)(F)F)ccc2c1O [CBK107429],110.102
25,COc1cc(CCc2cc(O)n3nc(-c4cccc(C)c4)c(C)c3n2)on1 [CBK285691],114.344
26,O=C(COC(=O)c1cc(O)nc2ccccc12)c1ccccc1Cl [CBK265524],117.557
27,COc1cccc(C(=O)N2CCCC2c2cc3cccnc3[nH]2)c1 (centres unmarked) [CBK285082],86.7641

row,Compound,% of control remaining
1,O=S(=O)(Nc1cc(F)cc(C(F)(F)F)c1)c1cc2c(N3CCNCC3)nccc2s1 [CBK038102C],109.814
2,CC1CCCC(C)N1S(=O)(=O)c1ccc(NS(=O)(=O)c2cccc(C(=O)O)c2)cc1 (centres unmarked) [CBK296944],94.1013
3,CNc1nc(NC(C#N)c2ccccc2)ncc1N (centres unmarked) [CBK174783],69.9492
4,CN1CCN(CC(O)COCc2ccc3c(c2)OCO3)CC1 (centres unmarked) [CBK278260C],113.998
5,CN(C)C(=O)Cn1nc(-c2cc3c(s2)CCCC3)oc1=O [CBK283905],106.614
6,O=C(C1CCCO1)N1CCCC(c2cc3cccnc3[nH]2)C1 (centres unmarked) [CBK284978],61.4757
7,N#CCSc1nnc(NC(=O)Nc2ccccc2)s1 [CBK028792],56.9382
8,COc1ccc(C(C)C)cc1-c1cncc(NCc2ccc3c(c2)OCO3)n1 [CBK065348],59.9402
9,O=C(Nc1ccc2[nH]ccc2c1)c1ccccc1Nc1cccc(C(F)(F)F)c1 [CBK149583],46.2592
10,Cc1ccc2nc(COC(=O)c3ccc(Cn4nnc5ccccc54)cc3)cn2c1 [CBK297923],100.81
11,O=c1ccc2ccc(-c3ccc(OC(F)(F)F)cc3)nc2[nH]1 [CBK073720],52.51
12,Cc1nnc(SCC(=O)Nc2ccc(CN3CCOCC3)cc2)n1C [CBK306092],47.0695
13,CC12CCC(C(=O)Nc3ccccc3)(OC1=O)C2(C)C (centres unmarked) [CBK018129],33.8796
14,CC(=O)N1CC[C@H]2NC(=O)CNC(=O)C3(CCCC[C@H]2C1)CCN(C(=O)CC1CCOCC1)CC3 [CBK292030],120.379
15,C=CCOc1ccc2ccccc2c1CNc1nc[nH]n1 [CBK267296],114.99
16,CNCc1cc(Br)ccc1OC [CBK027857],16.1689
17,FC(F)(F)c1ccc(OCc2ccc(Cl)c(Cl)c2)nc1 [CBK115831],96.9333
18,Clc1cccc(-c2cn3ccnc3c(NCc3cccnc3)n2)c1 [CBK066237],88.2149
19,O=C(CSc1nnc(-c2ccccc2O)n1Cc1ccccc1)NC12CC3CC(CC(C3)C1)C2 [CBK266075],101.871
20,CCOC(=O)CNS(=O)(=O)c1cccc2cccnc12 [CBK034440],93.7726
21,CCOC(=O)C1CCCN(CCC(=O)Nc2ccccc2)C1 (centres unmarked) [CBK264192C],104.73
22,O=C(O)c1cc(NC(=O)c2cccc(N3C(=O)c4ccc([N+](=O)[O-])cc4C3=O)c2)cc(C(=O)O)c1 [CBK261394],96.9281
23,NS(=O)(=O)c1ccccc1NC(=O)NC1CCCCC1 [CBK016919],122.321
24,COc1cc([N+](=O)[O-])ccc1NC(=O)NCc1ccco1 [CBK266855],86.0994
25,COc1ccc(CN(C(=O)CCN2C(=O)c3ccccc3S2(=O)=O)c2ccccc2O)cc1 [CBK265973],48.569
26,COc1ccc(-c2nc3cc(NC(=O)COc4ccccc4[N+](=O)[O-])ccc3o2)cc1Cl [CBK263412],107.594
